{"source": "PubChem BioAssay AID602340", "about": "(Broad Institute, 2012)", "note": "The campaign covered roughly 330,000 compounds. About 2,600 (0.79%) were called active. The inconclusive results got no clear call from the source; some entries with a clear call stand among them for comparison.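 Rule for the calls: active = mean ATP rescue above about 67%, or every replicate alone reaching that limit (limit read from the data, passing the limit was not always enough); inconclusive = no clear call, values can overlap the other calls; inactive = mean under the limit and some replicate under it.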"}
{"assay": "suppressors of statin myotoxicity in C2C12 myotubes, primary screen, cell-based, single point, plate reader (AID 602340);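 note: myotubes were challenged with 10 µM simvastatin during compound exposure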", "conditions": "C2C12 myotubes + simvastatin, ATP luminescence, 48 h; at 7.49 µM; stronger effect = higher value; scaled: DMSO 0, geranylgeraniol control 100"}
{"smiles": "COc1ccc(C(=O)O)cc1S(=O)(=O)Nc1ccccc1Cc1ccccc1", "rescue of ATP level": "inconclusive: 74.2%"}
{"smiles": "C[C@H]1CN([C@@H](C)CO)C(=O)c2cc(NC(=O)Nc3cccc4ccccc34)ccc2O[C@@H]1CN(C)Cc1ccc(C(=O)Nc2ccccc2N)cc1", "rescue of ATP level": "inconclusive: 67.1%"}
{"smiles": "CN(C)CCNC(=O)c1cccc(-c2cnc3c(NC=O)cc(-c4ccc(S(C)(=O)=O)cc4)cn23)c1", "rescue of ATP level": "inconclusive: 71.2%"}
{"smiles": "COC(=O)C(Cc1ccccc1)NC(=O)CCNC(=O)c1ccc(Br)cc1", "note": "(configuration not stated)", "rescue of ATP level": "inconclusive: 74.1%"}
{"smiles": "CSc1oc(-c2ccco2)nc1S(=O)(=O)c1ccc(C)cc1", "rescue of ATP level": "inconclusive: 67%"}
{"smiles": "Cc1c(Cl)cccc1Nc1nc(N)nc(CN2CCCCCC2)n1", "rescue of ATP level": "active: 90.2%"}
{"smiles": "Cc1ccc(C)c(Cn2nnc3c(=O)[nH]c(C4CCCN(C(=O)CC(C)C)C4)nc32)c1", "note": "(configuration not stated)", "rescue of ATP level": "active: 85.4%"}
{"smiles": "C[C@@H]1CN([C@@H](C)CO)C(=O)c2cc(NC(=O)Cc3ccccc3)ccc2O[C@@H](C)CCCCO[C@H]1CN(C)C(=O)C1CCCCC1", "rescue of ATP level": "inconclusive: 75.1%"}
{"smiles": "O=C1C=C(NCC2CCCO2)CC(c2ccccc2)C1", "note": "(configuration not stated)", "rescue of ATP level": "inconclusive: 73.7%"}
{"smiles": "COc1ccccc1C(=O)NNC1=C(C(=O)C(F)(F)F)CCC1", "rescue of ATP level": "inconclusive: 71%"}
{"smiles": "C[C@H]1CN([C@@H](C)CO)S(=O)(=O)c2ccc(C#CC3CC3)cc2O[C@@H]1CN(C)C", "rescue of ATP level": "inactive: 13.6%"}
{"smiles": "O=C(C[C@@H]1C=C[C@@H](NC(=O)c2ccc3c(c2)OCO3)[C@H](CO)O1)NCc1ccc(F)cc1", "rescue of ATP level": "inactive: -0.607%"}
{"smiles": "COCC(=O)N(C)C[C@H]1Oc2ncc(-c3ccccc3F)cc2C(=O)N([C@@H](C)CO)C[C@@H]1C", "rescue of ATP level": "inactive: 5.76%"}
{"smiles": "Cc1ccc(-c2csc(/C=C3\\SC(C)C(=O)N3CC(=O)Nc3ccccc3F)n2)cc1", "note": "(configuration not stated)", "rescue of ATP level": "inactive: 2.31%"}
{"smiles": "C[C@@H]1CN([C@H](C)CO)C(=O)Cc2cc(N(C)C)ccc2O[C@@H]1CN(C)Cc1ccc(Cl)c(Cl)c1", "rescue of ATP level": "inconclusive: 65.6%"}
{"smiles": "Cc1nc(SCCC(=O)O)c2cc(-c3ccccc3)sc2n1", "rescue of ATP level": "active: 66.8%"}
{"smiles": "COc1ccc(S(=O)(=O)Nc2cccc3c2O[C@H](CN(C)C(=O)Nc2ccc(C(F)(F)F)cc2)[C@H](C)CN([C@H](C)CO)C3=O)cc1", "rescue of ATP level": "inconclusive: 78.5%"}
{"smiles": "CCCC(=O)Nc1nc2ccc(OCC)cc2s1", "rescue of ATP level": "inconclusive: 72.6%"}
{"smiles": "COc1ccc(S(=O)(=O)Nc2ccc3c(c2)C(=O)N([C@H](C)CO)C[C@H](C)[C@H](CN(C)S(=O)(=O)c2ccc(F)cc2)OCCCC[C@@H](C)O3)cc1", "rescue of ATP level": "inconclusive: 104%"}
{"smiles": "Cc1c(CN2CCCC(CO)(Cc3cccc(Cl)c3)C2)cnn1C", "note": "(configuration not stated)", "rescue of ATP level": "inconclusive: 11.3%"}
{"smiles": "Cc1ccc(S(=O)(=O)N(C)C[C@@H]2Oc3ccc(NS(=O)(=O)c4ccc(Cl)cc4)cc3C(=O)N([C@H](C)CO)C[C@@H]2C)cc1", "rescue of ATP level": "inconclusive: 76%"}
{"smiles": "C[C@@H]1CCCCO[C@@H](CN(C)C(=O)Nc2cccc3ccccc23)[C@H](C)CN([C@@H](C)CO)C(=O)c2cc(NC(=O)c3ccncc3)ccc2O1", "rescue of ATP level": "inconclusive: 83%"}
{"smiles": "Cc1cc(NC(=O)COC(=O)C2CCN(C(=O)c3ccc(Cl)cc3)CC2)no1", "rescue of ATP level": "active: 111%"}
{"smiles": "CCCNC(=O)N(C)C[C@@H]1Oc2cc(C3=CCCCC3)ccc2S(=O)(=O)N([C@H](C)CO)C[C@@H]1C", "rescue of ATP level": "inconclusive: 82.7%"}
{"smiles": "Cc1c(NC(=O)C(C)OC(=O)COc2cccc3c2OC(C)(C)C3)c(=O)n(-c2ccccc2)n1C", "note": "(configuration not stated)", "rescue of ATP level": "active: 114%"}
{"smiles": "CC(=O)Nc1ccc(NC(=O)CSc2nnc(-c3ccco3)o2)cc1", "rescue of ATP level": "inactive: 5.76%"}
{"smiles": "C[C@@H]1CN([C@H](C)CO)C(=O)Cc2cc(NS(=O)(=O)c3ccc(Cl)cc3)ccc2O[C@@H]1CN(C)Cc1ccc(C(F)(F)F)cc1", "rescue of ATP level": "inconclusive: 65.2%"}
{"smiles": "CCC(=O)N[C@H]1CC[C@H](CC(=O)NCc2ccc(OC)cc2)O[C@H]1CO", "rescue of ATP level": "inactive: -0.78%"}
{"smiles": "Cc1ccc(S(=O)(=O)Nc2cccc3cccnc23)c([N+](=O)[O-])c1", "rescue of ATP level": "inconclusive: 65%"}
{"smiles": "COc1ccc(S(=O)(=O)Nc2cccc3c2O[C@H](CN(C)C(=O)Nc2ccc(F)cc2)[C@H](C)CN([C@H](C)CO)C3=O)cc1", "rescue of ATP level": "inconclusive: 72.3%"}
{"smiles": "Cc1cc(C)c(NC(=O)Cn2nnc(C(=O)NCCc3ccccc3)c2N)c(C)c1", "rescue of ATP level": "inactive: -10.5%"}
{"smiles": "Cc1cc(-n2c(C)cc(C(=O)CSc3ncnc4ccccc34)c2C)no1", "rescue of ATP level": "inactive: -4.69%"}
{"smiles": "Cc1cccc2sc(NNC(=O)c3ccc(S(=O)(=O)N4CCCC(C)C4)cc3)nc12", "note": "(configuration not stated)", "rescue of ATP level": "inconclusive: 67.7%"}
{"smiles": "O=C(NCC(F)(F)F)[C@H]1[C@H](CO)[C@H]2Cn3c(cccc3=O)[C@H]2N1C(=O)C1CC1", "rescue of ATP level": "inactive: -10.9%"}
{"smiles": "C[C@H](CO)N1C[C@H](C)[C@H](CN(C)Cc2ccc(Oc3ccccc3)cc2)Oc2ccc(NC(=O)Nc3ccc(F)cc3)cc2CC1=O", "rescue of ATP level": "inconclusive: 74.7%"}
{"smiles": "CCNC(=S)N1CCc2cc(OC)c(OC)cc2C1COc1ccc(F)cc1", "note": "(configuration not stated)", "rescue of ATP level": "inconclusive: 11.6%"}
{"smiles": "O=C(Nc1c(Cl)ccc2nsnc12)c1ccc([N+](=O)[O-])o1", "rescue of ATP level": "inconclusive: 67.2%"}
{"smiles": "COCc1cccc(-c2csc(C(O)c3cccc(OC)c3)n2)c1", "note": "(configuration not stated)", "rescue of ATP level": "inactive: 0.422%"}
{"smiles": "CC1CCN(C(=O)CN(Cc2ccc(Cl)cc2)S(C)(=O)=O)CC1", "rescue of ATP level": "inactive: 3.66%"}
{"smiles": "CC(C)c1nnc(NC(=O)C2CCN(C(=O)c3ccco3)CC2)s1", "rescue of ATP level": "inconclusive: 65.5%"}
{"smiles": "COc1ccc(Nc2oc(-c3ccc(Cl)cc3)nc2C#N)cc1", "rescue of ATP level": "inactive: -30.3%"}
{"smiles": "Cc1noc(C)c1NC(=O)Nc1ccc2c(c1)CC(=O)N([C@H](C)CO)C[C@H](C)[C@@H](CN(C)Cc1ccc(-c3ccccc3)cc1)O2", "rescue of ATP level": "inconclusive: 70.8%"}
{"smiles": "O=C(c1ccc2c(=O)n(CCc3ccccc3)c(=O)[nH]c2c1)N1CCN(c2ccc(F)cc2)CC1", "rescue of ATP level": "inconclusive: 70.4%"}
{"smiles": "COC(=O)c1sc(=S)n(-c2cc(F)ccc2F)c1N", "rescue of ATP level": "inconclusive: 85.2%"}
{"smiles": "O=C(NCc1cc(F)cc(F)c1)[C@@H]1[C@@H](CO)[C@@H]2Cn3c(cccc3=O)[C@H]1N2C(=O)c1cnccn1", "rescue of ATP level": "inactive: -12.3%"}
{"smiles": "CO[C@@H]1CN(C)C(=O)c2ccc(NS(=O)(=O)c3ccc(Cl)cc3)cc2OC[C@H](C)N(C)C[C@@H]1C", "rescue of ATP level": "inactive: -2.78%"}
{"smiles": "COc1ccccc1-n1cnc2cc(NCc3ccco3)ccc21", "rescue of ATP level": "active: 73.3%"}
{"smiles": "O=[N+]([O-])c1ccc(CNc2ccc(F)cc2)s1", "rescue of ATP level": "inconclusive: 71.6%"}
{"smiles": "COc1ccc(S(=O)(=O)N(C)C[C@@H]2OCCCC[C@H](C)Oc3ccc(NC(=O)Nc4c(C)noc4C)cc3C(=O)N([C@@H](C)CO)C[C@H]2C)cc1", "rescue of ATP level": "inconclusive: 75.6%"}
{"smiles": "C[C@@H]1CN([C@@H](C)CO)C(=O)Cc2cc(N(C)C)ccc2O[C@@H]1CN(C)Cc1ccc(Cl)c(Cl)c1", "rescue of ATP level": "inconclusive: 69.1%"}
{"smiles": "Cc1cc(C)n2nc(-c3ccc(Cl)cc3)cc2n1", "rescue of ATP level": "inactive: 9.72%"}
{"smiles": "COc1ccc(NC(=O)Nc2ccc3c(c2)C(=O)N([C@@H](C)CO)C[C@H](C)[C@H](CN(C)Cc2ccc(C(F)(F)F)cc2)OCCCC[C@@H](C)O3)cc1", "rescue of ATP level": "inconclusive: 65.6%"}
{"smiles": "CC(CCc1ccccc1)NC(=O)C(Cc1ccccc1)NS(=O)(=O)c1cccs1", "note": "(configuration not stated)", "rescue of ATP level": "inconclusive: 70.6%"}
{"smiles": "NC(=O)c1ccc(OCc2ccccc2)nc1", "rescue of ATP level": "inactive: -1.38%"}
{"smiles": "O=C(C[C@@H]1CC[C@@H]2[C@H](COC[C@@H](O)CN2CCC(F)(F)F)O1)NCc1ccc(Oc2ccccc2)cc1", "rescue of ATP level": "inconclusive: 70.3%"}
{"smiles": "C[C@H]1CN([C@@H](C)CO)C(=O)c2cc(N(C)C)ccc2O[C@@H]1CN(C)Cc1ccc(C(=O)Nc2ccccc2N)cc1", "rescue of ATP level": "active: 81.1%"}
{"smiles": "CC1CCN(CCn2c(=S)[nH]c3cc4c(cc3c2=O)OCO4)CC1", "rescue of ATP level": "inconclusive: -0.0735%"}
{"smiles": "Cc1ccccc1Cc1c(C)nc2c(C(=O)NCc3ccc4c(c3)OCO4)cnn2c1C", "rescue of ATP level": "inconclusive: 73%"}
{"smiles": "C[C@H](CO)N1C[C@H](C)[C@@H](CN(C)C(=O)Nc2ccc(F)cc2)Oc2ncc(Br)cc2C1=O", "rescue of ATP level": "inactive: 9.91%"}
{"smiles": "C[C@@H]1CN([C@@H](C)CO)C(=O)c2cc(Br)cnc2O[C@@H]1CN(C)Cc1ccncc1", "rescue of ATP level": "inactive: 5.28%"}
{"smiles": "O=C(Nc1cccc2cccnc12)c1cccc([N+](=O)[O-])c1", "rescue of ATP level": "inactive: 20.5%"}
{"smiles": "CC(=O)NC1C(=O)Nc2c1cccc2C(F)(F)F", "note": "(configuration not stated)", "rescue of ATP level": "inconclusive: 79.5%"}
{"smiles": "Cc1ccccc1S(=O)(=O)N(C)C[C@H]1OCc2ccccc2-c2c(n(C)c3ccccc23)C(=O)N([C@H](C)CO)C[C@H]1C", "rescue of ATP level": "inconclusive: 67.5%"}
{"smiles": "Cn1nnc2c(sc3nc(N4CCOCC4)c4c(c32)CCCC4)c1=O", "rescue of ATP level": "active: 118%"}
{"smiles": "COc1ccc(C(C(=O)NC2CCCC2)N(CCO)C(=O)Cn2nnc(-c3ccc(C)o3)n2)cc1", "note": "(configuration not stated)", "rescue of ATP level": "inconclusive: 78.3%"}
{"smiles": "COc1ccc(NC(=O)Nc2ccc3c(c2)CC(=O)N([C@@H](C)CO)C[C@@H](C)[C@@H](CN(C)S(=O)(=O)c2ccccc2)O3)cc1", "rescue of ATP level": "inactive: -15.4%"}
{"smiles": "N#Cc1c(NC(=O)c2ccc([N+](=O)[O-])o2)sc2c1CCC2", "rescue of ATP level": "inconclusive: 73.5%"}
{"smiles": "COC(=O)c1cc2c(-c3ccccc3)cc3ccccn3c-2c1C(=O)OC", "rescue of ATP level": "inconclusive: 81.8%"}
{"smiles": "COc1ccc(Cl)cc1NC(=O)CC(C)=O", "rescue of ATP level": "active: 91.7%"}
{"smiles": "C[C@@H]1CN([C@H](C)CO)C(=O)c2cc(C#CC3CC3)cnc2O[C@@H]1CN(C)S(C)(=O)=O", "rescue of ATP level": "inactive: 20%"}
{"smiles": "O=C(NNC1=C(C(=O)C(F)(F)F)CCC1)c1ccccc1Cl", "rescue of ATP level": "inconclusive: 80.5%"}
{"smiles": "CCNC(=O)N(C)C[C@H]1N[C@@](C)(C(=O)OC)[C@H]2C(=O)N(Cc3ccccc3)C(=O)[C@@H]12", "rescue of ATP level": "inactive: -2.28%"}
